The campaign covered roughly 52,000 compounds. About 1,700 (3.3%) were called active. No stated cut-off is given here; in the data, active means survival mostly below about 52% (no sharp cut-off); inactive means mostly above about 56%. The list shows a part of the results.
These molecules were tested on Wild type (assay: growth inhibition of S. aureus wild type versus tarO mutant, primary screen, teichoic acid synthesis inhibitors, RN4220, OD600 (AID 463173)). Conditions: S. aureus RN4220 wild type/DeltatarO growth, OD600, 18 h, stronger effect = lower value, screened at 18.75 µg/mL (by protocol).
For `CCOc1ccc(-c2nc(CSCC(=O)NCc3ccc(C)cc3)c(C)o2)cc1`, the survival was inactive: 73%. With `Cc1cccc(N2CCN(c3ncnc4c3nc3n4CCCCC3)CC2C)c1` (stereo not given) the survival was inactive: 75%. In the case of `COC(=O)c1cc(NC(=O)c2sc3ccccc3c2Cl)cc(C(=O)OC)c1`, the survival is reported as inactive: 74%. In the case of `Cc1ccc(C)c(-n2nnc(-c3nc(-c4ccccc4C)no3)c2C)c1`, the survival is reported as inactive: 91%. For `O=C(C(F)F)N1CCN(c2ccccc2)CC1`, the survival was inactive: 99%. For `COc1ccc(-c2nn(-c3ccc(C)cc3)c3c2cnc2ccc(C)cc23)cc1OC`, the survival was inactive: 86%. `Cc1cc(N)cc(C(=O)O)c1O` was tested, and the survival was inactive: 121%. For `COc1cccc(NC(=O)c2cc3c(-c4ccc(Cl)cc4)nn(C)c3s2)c1`, the survival was inactive: 117%. With `Cc1coc2cc3oc(=O)c(CCC(=O)NCc4ccccc4Cl)c(C)c3cc12` the survival was inactive: 87%. With `CCCN1CCN(CCCNC(=O)C(CC)n2nc(C)n3c(cc4occc43)c2=O)CC1` (stereo not given) the survival was inactive: 87%. `O=C(O)c1cccc(-n2cnc3cccnc32)c1` was tested, and the survival was inactive: 74%. `O=C(NCC(c1cccnc1)N1CCN(Cc2ccccc2)CC1)C(=O)Nc1cccc(Cl)c1` (stereo not given) was tested, and the survival was inactive: 82%. `CCN(CC)CCNC(=O)c1cn(CC)c2ccc(S(=O)(=O)N(C)C3CCCCC3)cc2c1=O` was tested, and the survival was inactive: 88%. In the case of `CCC(C(=O)NC1CCCCC1)n1c(SCc2cccc(C)c2)nc2ccncc21` (stereo not given), the survival is reported as inactive: 69%. For `CC(C)n1nnnc1SCC(=O)NCc1ccco1`, the survival was inactive: 112%. With `Cn1c(C(=O)N2CCC(C(=O)NCCc3ccccc3)CC2)cc2sccc21` the survival was inactive: 81%. For `O=C(CN(C(=O)c1ccc(Cl)nc1)C1CCCC1)NCc1ccc2c(c1)OCO2`, the survival was inactive: 104%. For `CN(C(=S)SCC1=CCS(=O)(=O)C1)C1CCS(=O)(=O)C1` (stereo not given), the survival was inactive: 112%. `N#Cc1ccccc1CSc1nnc2ccc3ccccc3n12` was tested, and the survival was inactive: 86%. In the case of `COCc1c(Br)c(C)nc2sc3c(=O)n(-c4cccc(Br)c4)nnc3c12`, the survival is reported as inactive: 87%. With `CCN1C(=O)c2ccccc2S(=O)(=O)c2ccc(C(=O)NCc3ccc(OC)cc3)cc21` the survival was inactive: 97%. `CC(NC(=O)c1ccco1)c1nc(-c2ccccc2)no1` (stereo not given) was tested, and the survival was inactive: 83%. With `Cc1cc(=O)n(CC(=O)NC(C)c2ccccc2)c2c1c(C)nn2-c1cccc(F)c1` (stereo not given) the survival was inactive: 136%. With `O=C(CN(c1ccc(Cl)c(C(F)(F)F)c1)S(=O)(=O)c1ccccc1)Nc1cccnc1` the survival was inactive: 64%. With `CCc1ccccc1NC(=O)CSc1nnc(-c2ccccc2)c(-c2ccccc2)n1` the survival was inactive: 69%. In the case of `COc1cc(OC)cc(-c2cc3nc(C)c(CCC(=O)Nc4ccccc4OC)c(C)n3n2)c1`, the survival is reported as inactive: 71%. For `CC/C(=N/NC(=O)C1C2CCCCC21)c1ccc(O)cc1` (stereo not given), the survival was inactive: 112%. With `N#CC1=C(N)OC2=C(C(=O)CCC2)C12C(=O)Nc1ccc(F)cc12` (stereo not given) the survival was inactive: 97%. In the case of `COCCNC(=O)Cn1c(=O)c2cccn2c2ccc(F)cc21`, the survival is reported as inactive: 85%. For `O=C(CC1Nc2ccccc2NC1=O)Nc1ccccc1C(F)(F)F` (stereo not given), the survival was inactive: 106%. In the case of `Cc1ccccc1C(=O)Nc1c(C(=O)Nc2cccc(F)c2)oc2ccccc12`, the survival is reported as inactive: 57%. For `CCc1nnc(NC(=O)c2nc(SC)ncc2Cl)s1`, the survival was inactive: 112%. For `NC(=O)CSc1nc2c(oc3ccccc32)c(=O)n1Cc1ccccc1`, the survival was inactive: 66%. For `CCSc1oc(-c2cccs2)nc1S(=O)(=O)c1ccc(Br)cc1`, the survival was inactive: 51%. `CCOC(=O)c1c(-c2ccccc2)oc2ccc(N(C(C)=O)S(=O)(=O)c3ccccc3)cc12` was tested, and the survival was inactive: 70%. In the case of `O=C(NCc1ccc2c(c1)OCO2)c1ccc2c(c1)N(Cc1ccccc1F)C(=O)c1ccccc1S2=O` (stereo not given), the survival is reported as inactive: 93%. With `CCOc1ccc(Cn2nnc(C(=O)Nc3ccc(Cl)cc3)c2N)cc1` the survival was inactive: 92%. With `CCCN(C(=O)c1c(C)oc2ncnc(N3CCOCC3)c12)c1ccc(Cl)c(Cl)c1` the survival was inactive: 74%. `O=S(=O)(NCC(c1ccco1)N1CCN(c2ccccc2)CC1)c1ccccc1` (stereo not given) was tested, and the survival was inactive: 81%. With `CCn1ccc2c(OCC(=O)Nc3ccc(C(C)=O)cc3)cccc2c1=O` the survival was inactive: 53%. In the case of `COc1ccccc1CNC(=O)c1cc2c(-c3ccc(Cl)cc3)nn(C)c2s1`, the survival is reported as inactive: 151%. For `COc1ccccc1CNC(=O)C1CCN(C(=O)c2sccc2-n2cccc2)CC1`, the survival was inactive: 83%. In the case of `CN(C1CCCCC1)S(=O)(=O)c1ccc2c(c1)c(=O)c(C(=O)NCc1ccc(F)cc1)cn2C`, the survival is reported as inactive: 95%. In the case of `O=C(c1ccc2c(c1)N(Cc1ccc(Cl)cc1)C(=O)c1ccccc1S2(=O)=O)N1CCC(Cc2ccccc2)CC1`, the survival is reported as inactive: 93%. For `O=C(c1ccccc1)C(C(=O)N1CCCCC1)n1ccccc1=O` (stereo not given), the survival was inactive: 113%. For `Cc1ccc(S(=O)(=O)Nc2ccc3[nH]c(=O)sc3c2)cc1C`, the survival was inactive: 73%. With `CCN(CC)Cc1cc(C(=O)O)oc1C(C)(C)C` the survival was inactive: 106%. For `O=C(Nc1cc2c(cc1C(=O)c1ccc(Br)cc1)OCCO2)c1ccc(Cl)cc1`, the survival was inactive: 92%. With `Cc1ccc(Nc2nc(C(=O)N3CCC(C)CC3)cs2)cc1` the survival was inactive: 117%. With `COc1cccc(-n2c(=O)c3cc(OC)c(OC)cc3n(CC(=O)Nc3ccccc3)c2=O)c1` the survival was inactive: 127%. With `CCOc1ccc(NC(=O)CSC2=Nc3ccccc3C3=NC(CC(=O)NCc4ccccc4OC)C(=O)N23)cc1` (stereo not given) the survival was inactive: 136%. In the case of `O=C(c1ccc2c(c1)N(Cc1ccc(F)cc1)C(=O)c1ccccc1S2(=O)=O)N1CCCCCC1`, the survival is reported as inactive: 92%. In the case of `Cc1ccc(N2CC(NC(=O)c3ccco3)CC2=O)cc1` (stereo not given), the survival is reported as inactive: 80%. For `Cc1ccc(C)c(S(=O)(=O)c2cn(C)c3cc(F)c(F)cc3c2=O)c1`, the survival was inactive: 81%. For `CCc1cccc(NC(=O)c2c(N3CCCC3=O)c3cc(C)ccc3n2C)c1`, the survival was inactive: 91%. For `CC(=O)Nc1ccccc1-c1nc2ccccc2n(CC(=O)Nc2ccc(C)c(Cl)c2)c1=O`, the survival was inactive: 103%. `COc1ccc(CCn2c(=O)c3ccccc3n(CC(=O)Nc3cccc(C)c3)c2=O)cc1OC` was tested, and the survival was inactive: 89%. In the case of `Cc1oc(-c2ccccc2F)nc1CS(=O)(=O)CC(=O)N1CCN(c2ccc(Cl)cc2)CC1`, the survival is reported as inactive: 53%. `CCn1c(SC)nnc1C1CCCN(C(=O)c2ccccc2-c2ccccc2)C1` (stereo not given) was tested, and the survival was inactive: 120%. `Cc1ccc(S(=O)Cc2ccc(C(=O)NC3CCCCCC3)o2)cc1` (stereo not given) was tested, and the survival was inactive: 146%. With `Cc1ccc(NC(=O)CSc2nc3c(c(=O)[nH]2)CCC3)cc1Cl` the survival was inactive: 77%. `Cc1[nH]c2ccc(C(=O)Nc3ccc(F)cc3)cc2c1C` was tested, and the survival was inactive: 140%. In the case of `Cc1ccccc1CN1C(=O)c2ccccc2S(=O)c2ccc(C(=O)NCc3ccco3)cc21` (stereo not given), the survival is reported as inactive: 96%. For `CCN(C(=O)CCS(=O)(=O)c1ccc2c(c1)oc(=O)n2C)c1ccc(OC)cc1`, the survival was inactive: 70%. `Clc1ccccc1C(c1nnnn1Cc1ccco1)N1CCN(Cc2ccco2)CC1` (stereo not given) was tested, and the survival was inactive: 111%. For `Cn1c(=O)c2ccccc2n(CC(N)=O)c1=O`, the survival was inactive: 109%. In the case of `CCS(=O)(=O)N1CCC2(CC1)OC(=O)C(C)=C2C(=O)NCc1cccc(Cl)c1`, the survival is reported as inactive: 49%. For `O=S(=O)(c1ccc(Br)cc1)c1nc(-c2cccs2)oc1SCc1ccc(F)cc1`, the survival was inactive: 67%. `Cc1ccc(-c2nc(CN(C)C)cc(CN(C)C)c2O)cc1` was tested, and the survival was inactive: 121%. `Cc1ccccc1NS(=O)(=O)c1ccc2c(c1)NC(=O)CCS2` was tested, and the survival was inactive: 57%. With `Cc1ccc(C)c(N2CCN(C(=O)C3CCN(C(=O)c4cc5sccc5n4C)CC3)CC2)c1` the survival was inactive: 54%. In the case of `C=CCN1C(=O)C2C(C(=O)NC3CCCCC3C)C3(C)C=CC2(O3)C1C(=O)NC(C)(C)C` (stereo not given), the survival is reported as inactive: 105%. `COc1cc2c(cc1NC(=O)COc1ccc(Br)cc1C)oc1ccccc12` was tested, and the survival was inactive: 141%. With `CC(C)CCNC(=O)CCC(=O)N1Cc2ccccc2Oc2ncccc21` the survival was inactive: 65%. In the case of `CCn1c(SCC(=O)Nc2ccccc2)nc2c([nH]c3ccccc32)c1=O`, the survival is reported as inactive: 81%. For `COc1ccc(NC(=O)CCCSc2nc(-c3ccco3)cc(C(F)(F)F)n2)cc1`, the survival was inactive: 99%. `Cc1cc2c(cc1S(=O)(=O)NCc1ccccc1)OCC(=O)N2` was tested, and the survival was inactive: 92%. In the case of `COc1ccccc1C(=O)Nc1c(C(=O)N2CCN(c3ccccc3F)CC2)oc2ccccc12`, the survival is reported as inactive: 101%. In the case of `Cc1ccc(CNC(=O)c2ccc3c(c2)NC(=O)C(CS(=O)(=O)Cc2ccc(F)cc2)N3)cc1` (stereo not given), the survival is reported as inactive: 68%. In the case of `CCN(CC)S(=O)(=O)c1ccc(-c2nnc(SCC(=O)N3CCCC3)n2CC)cc1`, the survival is reported as inactive: 110%. For `CN(C)c1cccc(C(=O)Nc2nc3ccc(S(=O)(=O)NC(C)(C)C)cc3s2)c1`, the survival was inactive: 60%. In the case of `O=C(c1ccccc1)c1ccc2nc(N3CCN(c4ccccc4)CC3)c3nncn3c2c1`, the survival is reported as inactive: 84%. In the case of `Cc1nc2ccc(S(=O)(=O)CCC(=O)Nc3ccc(C(C)C)cc3)cc2s1`, the survival is reported as inactive: 87%. In the case of `CC(C)(C)c1ccc(C(=O)Nc2ccc(C(=O)OCc3cc(=O)n4ccsc4n3)cc2)cc1`, the survival is reported as inactive: 80%. With `CCc1ccc(C(c2c(C)[nH][nH]c2=O)C(C#N)C#N)cc1` (stereo not given) the survival was inactive: 91%. In the case of `CCC1CCCCN1CCCNC(=O)c1cn(CC)c2ccc(S(=O)(=O)N(C)C3CCCCC3)cc2c1=O` (stereo not given), the survival is reported as inactive: 87%. In the case of `Cc1cc(C)cc(Nc2nc3ccccc3nc2-n2nc(C)cc2C)c1`, the survival is reported as active: 8%. With `CCOC(=O)N1CCc2c(sc3c2c(=O)n(Cc2ccccc2)c(=O)n3CC(=O)Nc2cccc(C)c2)C1` the survival was inactive: 84%. With `COC(=O)c1sc(-c2ccccc2)cc1NC(=O)Nc1ccccc1Cl` the survival was active: 5%. For `Cc1ccc(CNC(=O)C2(c3cccs3)CCOCC2)cc1`, the survival was inactive: 69%.
